Laboratory results: a collection of fitness landscapes (doi:10.1016/j.celrep.2020.107928)
Over roughly 81,000 sequences, “one-hybrid fitness for binding NBS DNA” has its median near -0.1; the highest 2% begin near 0.36. The list shows a part of the results.

B1: Caulobacter ParB omega fusion; a variant is named by its letters at X, in order, B8GW30 (parent)
chain: MESVVVGEPGMSEGRRGLGRGLSALLGEVDAAPAQAPGEQLGGSREAPIEILQRNPDQPRRTFREEDLEDLSNSIREKGVLQPILVRPSPDTAGEYQIVAGERAWRAAQRAGLKTVPIMVRELDDLAVLEIGIIENVQRADLNVLEEALSYKVLMEKFERTQENIAQTIGKSXSHVANXMRLLXLPDEVQSYLVSGELTAXHARAIAAAADPVALAKQIIEGGLSVRETEALARKAPNLSAGKSKGGRPPRVKDTDTQALESDLSSVLGLDVSIDHRGSTGTLTITYATLEQLDDLCNRLTRGI

Variants of: B1
Assay: one-hybrid fitness for binding NBS DNA (the Noc-binding site; scaled: cognate 1, non-cognate 0); higher = stronger binding
Conditions: with NBS DNA site
Summary of the method: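 Fitness here means the log change in variant-to-wild-type read ratio between plasmids sequenced before and after selection. That scale was set so cognate equals 1 and non-cognate equals 0. The selection was a bacterial one-hybrid screen of Caulobacter ParB libraries, four specificity codons randomised, in E. coli USO carrying a HIS3 reporter with the site 19 bp from the promoter, grown 48 hours at 37°C on M9-minus-histidine with 0.1 mM IPTG and 5 mM 3-AT.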
For AHHV, the “one-hybrid fitness for binding NBS DNA” value was ≤ 0.2.
In the case of RVRI, the “one-hybrid fitness for binding NBS DNA” value is reported as ≤ 0.2.
With HAAW the “one-hybrid fitness for binding NBS DNA” value was ≤ 0.2.
For RTYP, the “one-hybrid fitness for binding NBS DNA” value was ≤ 0.2.
PAKM was tested, and the “one-hybrid fitness for binding NBS DNA” value was ≤ 0.2.
For KRSR, the “one-hybrid fitness for binding NBS DNA” value was 0.561.
In the case of PTTN, the “one-hybrid fitness for binding NBS DNA” value is reported as ≤ 0.2.
With YLQW the “one-hybrid fitness for binding NBS DNA” value was ≤ 0.2.
For YSQV, the “one-hybrid fitness for binding NBS DNA” value was ≤ 0.2.
For VSCK, the “one-hybrid fitness for binding NBS DNA” value was ≤ 0.2.
For RWMR, the “one-hybrid fitness for binding NBS DNA” value was ≤ 0.2.
For PDYS, the “one-hybrid fitness for binding NBS DNA” value was ≤ 0.2.
In the case of HQGS, the “one-hybrid fitness for binding NBS DNA” value is reported as ≤ 0.2.
EYHR was tested, and the “one-hybrid fitness for binding NBS DNA” value was ≤ 0.2.
With TITV the “one-hybrid fitness for binding NBS DNA” value was ≤ 0.2.
In the case of FSHS, the “one-hybrid fitness for binding NBS DNA” value is reported as ≤ 0.2.
KCIT was tested, and the “one-hybrid fitness for binding NBS DNA” value was ≤ 0.2.
In the case of LTWF, the “one-hybrid fitness for binding NBS DNA” value is reported as ≤ 0.2.
With YWTS the “one-hybrid fitness for binding NBS DNA” value was ≤ 0.2.
For PPII, the “one-hybrid fitness for binding NBS DNA” value was ≤ 0.2.
For PKGI, the “one-hybrid fitness for binding NBS DNA” value was ≤ 0.2.
HSIG was tested, and the “one-hybrid fitness for binding NBS DNA” value was ≤ 0.2.
With FTPF the “one-hybrid fitness for binding NBS DNA” value was ≤ 0.2.
With KNSM the “one-hybrid fitness for binding NBS DNA” value was ≤ 0.2.
For YRPK, the “one-hybrid fitness for binding NBS DNA” value was ≤ 0.2.
In the case of QRVQ, the “one-hybrid fitness for binding NBS DNA” value is reported as 0.511.
DNNS was tested, and the “one-hybrid fitness for binding NBS DNA” value was ≤ 0.2.
For RRTM, the “one-hybrid fitness for binding NBS DNA” value was 0.291.
In the case of LHTG, the “one-hybrid fitness for binding NBS DNA” value is reported as ≤ 0.2.
ILKT was tested, and the “one-hybrid fitness for binding NBS DNA” value was ≤ 0.2.
With GQLN the “one-hybrid fitness for binding NBS DNA” value was ≤ 0.2.
With EATT the “one-hybrid fitness for binding NBS DNA” value was ≤ 0.2.
ETRL was tested, and the “one-hybrid fitness for binding NBS DNA” value was ≤ 0.2.
With LYPS the “one-hybrid fitness for binding NBS DNA” value was ≤ 0.2.
For WRGS, the “one-hybrid fitness for binding NBS DNA” value was ≤ 0.2.
In the case of QTGM, the “one-hybrid fitness for binding NBS DNA” value is reported as 0.3.
In the case of RWES, the “one-hybrid fitness for binding NBS DNA” value is reported as ≤ 0.2.
MMIG was tested, and the “one-hybrid fitness for binding NBS DNA” value was ≤ 0.2.
In the case of QGEI, the “one-hybrid fitness for binding NBS DNA” value is reported as ≤ 0.2.
For ALEL, the “one-hybrid fitness for binding NBS DNA” value was ≤ 0.2.
With WALT the “one-hybrid fitness for binding NBS DNA” value was ≤ 0.2.
GAKR was tested, and the “one-hybrid fitness for binding NBS DNA” value was 0.234.
DRDE was tested, and the “one-hybrid fitness for binding NBS DNA” value was ≤ 0.2.
With SNLK the “one-hybrid fitness for binding NBS DNA” value was ≤ 0.2.
MIDE was tested, and the “one-hybrid fitness for binding NBS DNA” value was ≤ 0.2.
In the case of QLGN, the “one-hybrid fitness for binding NBS DNA” value is reported as ≤ 0.2.
For VWKS, the “one-hybrid fitness for binding NBS DNA” value was ≤ 0.2.
ALSC was tested, and the “one-hybrid fitness for binding NBS DNA” value was ≤ 0.2.
With SMKM the “one-hybrid fitness for binding NBS DNA” value was ≤ 0.2.
In the case of HPQG, the “one-hybrid fitness for binding NBS DNA” value is reported as ≤ 0.2.
In the case of KRPE, the “one-hybrid fitness for binding NBS DNA” value is reported as ≤ 0.2.
VGQF was tested, and the “one-hybrid fitness for binding NBS DNA” value was ≤ 0.2.
With NAAV the “one-hybrid fitness for binding NBS DNA” value was ≤ 0.2.
With RIHM the “one-hybrid fitness for binding NBS DNA” value was ≤ 0.2.
For IVVT, the “one-hybrid fitness for binding NBS DNA” value was ≤ 0.2.
For LHDC, the “one-hybrid fitness for binding NBS DNA” value was ≤ 0.2.
With VLQC the “one-hybrid fitness for binding NBS DNA” value was ≤ 0.2.
In the case of PRPV, the “one-hybrid fitness for binding NBS DNA” value is reported as ≤ 0.2.
In the case of NLNT, the “one-hybrid fitness for binding NBS DNA” value is reported as ≤ 0.2.
SSLF was tested, and the “one-hybrid fitness for binding NBS DNA” value was ≤ 0.2.
For KLAY, the “one-hybrid fitness for binding NBS DNA” value was ≤ 0.2.
PHME was tested, and the “one-hybrid fitness for binding NBS DNA” value was ≤ 0.2.
In the case of FYHF, the “one-hybrid fitness for binding NBS DNA” value is reported as ≤ 0.2.
TSQR was tested, and the “one-hybrid fitness for binding NBS DNA” value was ≤ 0.2.
With KHSR the “one-hybrid fitness for binding NBS DNA” value was ≤ 0.2.
In the case of QYAF, the “one-hybrid fitness for binding NBS DNA” value is reported as ≤ 0.2.
For SVWT, the “one-hybrid fitness for binding NBS DNA” value was ≤ 0.2.
With YCTG the “one-hybrid fitness for binding NBS DNA” value was ≤ 0.2.
With RIWQ the “one-hybrid fitness for binding NBS DNA” value was ≤ 0.2.
For ARIK, the “one-hybrid fitness for binding NBS DNA” value was ≤ 0.2.
With SPPN the “one-hybrid fitness for binding NBS DNA” value was ≤ 0.2.
For YHDT, the “one-hybrid fitness for binding NBS DNA” value was ≤ 0.2.
For VRAI, the “one-hybrid fitness for binding NBS DNA” value was ≤ 0.2.
NLRT was tested, and the “one-hybrid fitness for binding NBS DNA” value was ≤ 0.2.
For KNKH, the “one-hybrid fitness for binding NBS DNA” value was ≤ 0.2.
With RYYV the “one-hybrid fitness for binding NBS DNA” value was ≤ 0.2.
For VMIT, the “one-hybrid fitness for binding NBS DNA” value was ≤ 0.2.
With IEVY the “one-hybrid fitness for binding NBS DNA” value was ≤ 0.2.
In the case of NQKF, the “one-hybrid fitness for binding NBS DNA” value is reported as ≤ 0.2.
CVQC was tested, and the “one-hybrid fitness for binding NBS DNA” value was ≤ 0.2.
DREL was tested, and the “one-hybrid fitness for binding NBS DNA” value was ≤ 0.2.
With YCGC the “one-hybrid fitness for binding NBS DNA” value was ≤ 0.2.
With WYCR the “one-hybrid fitness for binding NBS DNA” value was 0.33.
For GSWS, the “one-hybrid fitness for binding NBS DNA” value was ≤ 0.2.
With QQQD the “one-hybrid fitness for binding NBS DNA” value was ≤ 0.2.
AAGT was tested, and the “one-hybrid fitness for binding NBS DNA” value was ≤ 0.2.
SIDS was tested, and the “one-hybrid fitness for binding NBS DNA” value was ≤ 0.2.
IRLC was tested, and the “one-hybrid fitness for binding NBS DNA” value was ≤ 0.2.
With MKVS the “one-hybrid fitness for binding NBS DNA” value was ≤ 0.2.
In the case of LTMT, the “one-hybrid fitness for binding NBS DNA” value is reported as ≤ 0.2.
GLHG was tested, and the “one-hybrid fitness for binding NBS DNA” value was ≤ 0.2.
RCFL was tested, and the “one-hybrid fitness for binding NBS DNA” value was ≤ 0.2.
In the case of MVIL, the “one-hybrid fitness for binding NBS DNA” value is reported as ≤ 0.2.
For GQRV, the “one-hybrid fitness for binding NBS DNA” value was ≤ 0.2.
For FTIK, the “one-hybrid fitness for binding NBS DNA” value was ≤ 0.2.
In the case of GMQP, the “one-hybrid fitness for binding NBS DNA” value is reported as ≤ 0.2.
For NEAV, the “one-hybrid fitness for binding NBS DNA” value was ≤ 0.2.
With VSEG the “one-hybrid fitness for binding NBS DNA” value was ≤ 0.2.
With LWYM the “one-hybrid fitness for binding NBS DNA” value was ≤ 0.2.
With IPLR the “one-hybrid fitness for binding NBS DNA” value was ≤ 0.2.
For HFPC, the “one-hybrid fitness for binding NBS DNA” value was ≤ 0.2.
QAGR was tested, and the “one-hybrid fitness for binding NBS DNA” value was 0.525.
In the case of AEQL, the “one-hybrid fitness for binding NBS DNA” value is reported as ≤ 0.2.
For RDDI, the “one-hybrid fitness for binding NBS DNA” value was ≤ 0.2.
With TSLI the “one-hybrid fitness for binding NBS DNA” value was ≤ 0.2.
In the case of HDNR, the “one-hybrid fitness for binding NBS DNA” value is reported as ≤ 0.2.
With CSPC the “one-hybrid fitness for binding NBS DNA” value was ≤ 0.2.
In the case of QLFQ, the “one-hybrid fitness for binding NBS DNA” value is reported as ≤ 0.2.
In the case of YHMC, the “one-hybrid fitness for binding NBS DNA” value is reported as ≤ 0.2.
For HETL, the “one-hybrid fitness for binding NBS DNA” value was ≤ 0.2.
With PNKG the “one-hybrid fitness for binding NBS DNA” value was ≤ 0.2.
SEKR was tested, and the “one-hybrid fitness for binding NBS DNA” value was ≤ 0.2.
With FPAA the “one-hybrid fitness for binding NBS DNA” value was ≤ 0.2.
For LWLL, the “one-hybrid fitness for binding NBS DNA” value was ≤ 0.2.
With AKTP the “one-hybrid fitness for binding NBS DNA” value was ≤ 0.2.
For WTTI, the “one-hybrid fitness for binding NBS DNA” value was ≤ 0.2.
With KVYR the “one-hybrid fitness for binding NBS DNA” value was ≤ 0.2.
In the case of RPQK, the “one-hybrid fitness for binding NBS DNA” value is reported as ≤ 0.2.
In the case of THAL, the “one-hybrid fitness for binding NBS DNA” value is reported as ≤ 0.2.
GWKS was tested, and the “one-hybrid fitness for binding NBS DNA” value was ≤ 0.2.
GRYW was tested, and the “one-hybrid fitness for binding NBS DNA” value was ≤ 0.2.
For RKWM, the “one-hybrid fitness for binding NBS DNA” value was ≤ 0.2.
HMHL was tested, and the “one-hybrid fitness for binding NBS DNA” value was ≤ 0.2.
For QCTH, the “one-hybrid fitness for binding NBS DNA” value was 0.295.
With TQTE the “one-hybrid fitness for binding NBS DNA” value was ≤ 0.2.
In the case of IHKT, the “one-hybrid fitness for binding NBS DNA” value is reported as ≤ 0.2.
LCME was tested, and the “one-hybrid fitness for binding NBS DNA” value was ≤ 0.2.
In the case of KTMW, the “one-hybrid fitness for binding NBS DNA” value is reported as ≤ 0.2.
With ITLI the “one-hybrid fitness for binding NBS DNA” value was ≤ 0.2.
With ISRA the “one-hybrid fitness for binding NBS DNA” value was ≤ 0.2.
For EETT, the “one-hybrid fitness for binding NBS DNA” value was ≤ 0.2.
For SALK, the “one-hybrid fitness for binding NBS DNA” value was ≤ 0.2.
In the case of DSSA, the “one-hybrid fitness for binding NBS DNA” value is reported as ≤ 0.2.
For IFQR, the “one-hybrid fitness for binding NBS DNA” value was ≤ 0.2.
With QYFY the “one-hybrid fitness for binding NBS DNA” value was ≤ 0.2.
For IAGR, the “one-hybrid fitness for binding NBS DNA” value was ≤ 0.2.
TALA was tested, and the “one-hybrid fitness for binding NBS DNA” value was ≤ 0.2.
For IGPR, the “one-hybrid fitness for binding NBS DNA” value was ≤ 0.2.
HICD was tested, and the “one-hybrid fitness for binding NBS DNA” value was ≤ 0.2.
FARV was tested, and the “one-hybrid fitness for binding NBS DNA” value was ≤ 0.2.
For RWLT, the “one-hybrid fitness for binding NBS DNA” value was ≤ 0.2.
TTLL was tested, and the “one-hybrid fitness for binding NBS DNA” value was ≤ 0.2.
For TEGW, the “one-hybrid fitness for binding NBS DNA” value was ≤ 0.2.
IRMV was tested, and the “one-hybrid fitness for binding NBS DNA” value was ≤ 0.2.
With SLGR the “one-hybrid fitness for binding NBS DNA” value was ≤ 0.2.
QIVL was tested, and the “one-hybrid fitness for binding NBS DNA” value was ≤ 0.2.
IKTQ was tested, and the “one-hybrid fitness for binding NBS DNA” value was ≤ 0.2.
For SLKG, the “one-hybrid fitness for binding NBS DNA” value was ≤ 0.2.
In the case of SDRS, the “one-hybrid fitness for binding NBS DNA” value is reported as ≤ 0.2.
CCET was tested, and the “one-hybrid fitness for binding NBS DNA” value was ≤ 0.2.
NGME was tested, and the “one-hybrid fitness for binding NBS DNA” value was ≤ 0.2.
For FPHL, the “one-hybrid fitness for binding NBS DNA” value was ≤ 0.2.
For KKLG, the “one-hybrid fitness for binding NBS DNA” value was ≤ 0.2.
